Reference: patent US20220288124A1
Results are given in words; binding and its absence hold for the method and conditions named. Some entries that bind do so weakly or less than the wild type. Tags and fused reporters may be left off the sequences shown. Values belong to the binder of their own block, whether it stands above or below them.

Sequences of proteins named here, by UniProt entry; tags and fusion partners are left off. A change or cut given only in a name is not applied to a line headed by its entry. Residues count along the entry.
UniProt P51654: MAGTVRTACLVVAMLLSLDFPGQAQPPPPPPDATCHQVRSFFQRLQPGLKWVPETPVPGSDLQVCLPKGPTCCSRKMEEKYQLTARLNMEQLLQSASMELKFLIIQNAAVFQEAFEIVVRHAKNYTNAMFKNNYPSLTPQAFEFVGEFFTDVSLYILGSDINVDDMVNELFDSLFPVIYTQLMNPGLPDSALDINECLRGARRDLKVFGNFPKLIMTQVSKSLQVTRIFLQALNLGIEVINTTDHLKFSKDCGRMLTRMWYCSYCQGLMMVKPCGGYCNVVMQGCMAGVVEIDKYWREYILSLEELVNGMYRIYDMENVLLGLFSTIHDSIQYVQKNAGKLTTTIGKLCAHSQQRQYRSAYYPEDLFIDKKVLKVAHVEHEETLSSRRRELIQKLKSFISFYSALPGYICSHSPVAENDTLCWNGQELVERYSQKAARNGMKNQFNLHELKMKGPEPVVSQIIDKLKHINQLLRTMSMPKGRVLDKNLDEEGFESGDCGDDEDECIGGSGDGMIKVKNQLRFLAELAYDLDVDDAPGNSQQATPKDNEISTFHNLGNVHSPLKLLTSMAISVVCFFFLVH
soluble hGPC3 protein (recombinant human glypican 3): residues 25-560 of P51654
N2 (30-68): residues 30-68 of P51654
N3 (59-97): residues 59-97 of P51654
N4 (88-126): residues 88-126 of P51654

Experiments:
[1] = biological target: soluble hGPC3 protein (recombinant human glypican 3) (human) (UniProt P51654); assay: BLI, mAb on anti-hIgG Fc capture sensor, GPC3 at 62.5 to 1000 nM
[2] = biological target: soluble hGPC3 protein (recombinant human glypican 3) (human) (UniProt P51654); assay: ELISA of recombinant mAb on hGPC3, OD450
[3] = biological target: soluble hGPC3 protein (recombinant human glypican 3) (human) (UniProt P51654); assay: ELISA, recombinant mAbs on hGPC3
N3 (59-97) (human) = N3 (59-97) (human) (UniProt P51654); assay: ELISA on plate-coated synthetic peptide, anti-human IgG-HRP
N2 (30-68) (human) = N2 (30-68) (human) (UniProt P51654); assay: as above
N4 (88-126) (human) = N4 (88-126) (human) (UniProt P51654); assay: as above

binding [1]: binds
binding [2]: binds
binding [3]: binds
B1: recombinant mAb 12D7 (12D7 VL and VH fused to human IgG constant regions) (antibody, V domains shown)
VH: QVQLQQPGSELVRPGASVKLSCKASGYTFTSYWMHWVKQRLGQGLEWIGNIYPGSGSTNYDEKFKSKGTLTVDTSSSTAYMHLSSLTSEDSAVYYCTRGDYDWVFAYWGQGTLVTVSA
VL: DIVMTQSQKFMSTSVGDRVSVTCKASQNVGTNVAWYQQKPGQSPKALIYSASYRYSGVPDRFTGSGSGTDFTLTISNVQSEDLAEYFCQQYNSYPLTFGAGTKLELKR

binding [1]: binds
binding [2]: binds
binding [3]: binds
binding (N3 (59-97) (human)): no binding (tested: 10 µg/ml)
binding (N2 (30-68) (human)): binds
binding (N4 (88-126) (human)): no binding (tested: 10 µg/ml)
B2: recombinant mAb 6G11 (6G11 VL and VH fused to human IgG constant regions) (antibody, V domains shown)
VH: QVQLQQPGSELVRPGASVKLSCKASGYTFTSCWMHWVKQRPGQGLEWIGNIYPGYGNTNYDEKFKNKATLTVDTSSSTAYMQLSGLTSEDSAVYYCTRGSYLYAMDYWGQGTSVTVSS
VL: DIQMNQSPSSLSASLGDTITITCHASQNINVWLSWYQQKPGNIPKLLIYKASNLHTGVPSRFSGSGSGTGFTLTISSLQPEDIATYYCQQGQSYPWTFGGGTKLEIKR
